Experimental data from the supplement of paper PMC3334620.
In all, about 33,000 sequences were measured (“E-score (-0.5 to 0.5)”: median about -0.012, highest 2% from about 0.29 on). This is one part of the list.

molecular target: T1, Ybr033w (UniProt P38073); assay: PBM E-score (8-mer binding enrichment) (E-score (-0.5 to 0.5)); higher = stronger / more preferred TF binding; most listed sequences are background and not binding sites; details: protein concentration: 200 nM; construct: GST-full length
T1 sequence: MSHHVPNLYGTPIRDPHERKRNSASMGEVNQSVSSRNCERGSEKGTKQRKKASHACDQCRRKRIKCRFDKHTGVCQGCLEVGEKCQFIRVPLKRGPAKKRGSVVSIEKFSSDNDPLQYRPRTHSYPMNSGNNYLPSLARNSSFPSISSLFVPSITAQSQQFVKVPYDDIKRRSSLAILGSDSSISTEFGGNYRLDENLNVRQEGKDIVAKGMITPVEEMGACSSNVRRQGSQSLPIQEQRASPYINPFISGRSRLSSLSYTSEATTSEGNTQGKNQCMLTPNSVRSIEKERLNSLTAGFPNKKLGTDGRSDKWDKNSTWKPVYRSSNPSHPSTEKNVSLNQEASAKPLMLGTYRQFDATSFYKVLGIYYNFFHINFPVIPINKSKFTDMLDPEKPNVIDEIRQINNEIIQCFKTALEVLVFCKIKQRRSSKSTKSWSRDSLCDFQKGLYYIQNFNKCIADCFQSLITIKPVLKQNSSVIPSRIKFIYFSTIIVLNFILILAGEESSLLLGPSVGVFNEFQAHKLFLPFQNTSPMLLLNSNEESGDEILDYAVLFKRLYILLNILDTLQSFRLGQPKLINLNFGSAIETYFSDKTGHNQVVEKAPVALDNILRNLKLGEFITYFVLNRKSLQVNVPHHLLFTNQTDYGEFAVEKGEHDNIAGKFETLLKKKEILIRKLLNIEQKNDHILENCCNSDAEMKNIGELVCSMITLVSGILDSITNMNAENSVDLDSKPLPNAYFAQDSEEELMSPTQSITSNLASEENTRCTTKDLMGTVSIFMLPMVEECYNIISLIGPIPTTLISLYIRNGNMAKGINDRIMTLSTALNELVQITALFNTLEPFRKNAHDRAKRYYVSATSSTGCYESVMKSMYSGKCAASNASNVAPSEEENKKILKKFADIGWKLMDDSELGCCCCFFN
Method: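 Universal 'all 10-mer' protein binding microarrays (Agilent AMADID 015681) probed with GST-tagged S. cerevisiae TFs (full-length or DBD) made by in vitro transcription/translation (PURExpress), about 100-200 nM. Bound TF was detected with fluorescent anti-GST. Each ungapped 8-mer (which stands for itself and its reverse complement) is scored by the PBM enrichment score (E-score), a modified Wilcoxon-Mann-Whitney statistic from -0.5 to +0.5, computed with the Universal PBM Analysis Suite. Scale: above 0.35 generally sequence-specific binding.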

| Sequence | PBM E-score |
| --- | --- |
| TAAGCCGA | 0.113 |
| AAGTGAGC | -0.0662 |
| ACGACCTG | -0.179 |
| CCCACACA | -0.13 |
| GGGGATGA | -0.126 |
| ACTTCTGA | 0.0394 |
| CAAACAAC | 0.166 |
| ATAAACCC | 0.165 |
| GTAAGCTA | 0.0775 |
| ACTACCTC | -0.0777 |
| GACAACGC | -0.145 |
| AAGAATCG | 0.15 |
| CCTGATGA | 0.0306 |
| AGCGTCAG | -0.119 |
| ACTTCGTA | 0.0589 |
| ACTTACCC | 0.114 |
| GCCACCCA | -0.201 |
| ATCAATTG | 0.252 |
| CTCTTTGA | -0.0179 |
| ACCTCGCG | -0.105 |
| ATGAAGGA | 0.224 |
| CAATTGAA | 0.00129 |

| Sequence | PBM E-score |
| --- | --- |
| GTTATGAA | 0.217 |
| ACGTGCAG | -0.233 |
| CCGTTGCA | -0.134 |
| CGCTGAAG | -0.091 |
| ACCTACCG | -0.0859 |
| GAGTCATC | -0.0578 |
| AACTCCTT | 0.0698 |
| CTGGATGC | -0.181 |
| CAAAGAAA | 0.0776 |
| TTCCGGAA | 0.316 |
| AAATCCGT | 0.0801 |
| GACTCTCC | -0.336 |
| GACTGACA | 0.016 |
| AAGCTACT | 0.0682 |
| ATTCGGTG | 0.0604 |
| AGAGTCCA | -0.0928 |
| ACCTTGCG | 0.0216 |
| CTACCGGC | -0.28 |
| CGTGCTCC | -0.164 |
| GCTCCATA | -0.175 |
| ACCCCGGG | -0.327 |
| GGGAGTCA | -0.226 |

| Sequence | PBM E-score |
| --- | --- |
| ATTATCGG | 0.0549 |
| GACAGAAC | 0.124 |
| ACCCCATG | 0.026 |
| ATAACCAT | 0.0101 |
| CTGCAAGA | 0.0509 |
| ACAGTTTG | 0.00732 |
| AAGCTAAA | 0.107 |
| CAGTTGCG | 0.0591 |
| AGCGGGCA | -0.253 |
| CGGTCACC | -0.232 |
| ATTTTGAG | 0.228 |
| CAAATGGA | 0.161 |
| CAAGCCAG | -0.0473 |
| AGCCTATC | -0.231 |
| ACTGTACG | -0.167 |
| ATAACGTG | -0.0946 |
| ACACTGGT | -0.0783 |
| AATCCACC | -0.07 |
| CGAGCCAG | 0.00891 |
| CCGTACAA | 0.0114 |
| CACAAAAA | 0.233 |
| CACTAGCC | -0.1 |

| Sequence | PBM E-score |
| --- | --- |
| ATGTGCAA | -0.00136 |
| ATATGAAG | 0.0849 |
| GCTGGTTA | -0.0645 |
| CATACCAG | -0.0355 |
| ATGTCGCC | -0.137 |
| AAAGTTAG | 0.297 |
| TAAGTAAA | 0.105 |
| AGGAAATG | 0.146 |
| AACAGCTC | -0.106 |
| GCGCCCCA | -0.237 |
| AGCAGGTG | 0.102 |
| ACGATTAT | 0.133 |
| AACCGCCT | 0.0265 |
| GATGACGC | -0.0995 |
| AGTATTTG | 0.159 |
| AGAGCAAC | -0.226 |
| GAAAGACA | 0.145 |
| CGCATGGC | -0.141 |
| CGGCAATC | -0.0982 |
| ACATACCA | -0.143 |
| CTCATTCC | 0.148 |
| GGTCGGGA | 0.0545 |

| Sequence | PBM E-score |
| --- | --- |
| ACGTAACT | 0.0228 |
| CCGGATCG | -0.141 |
| ATTGCGGG | 0.147 |
| AACGTTAT | 0.101 |
| AGCGCTAT | 0.179 |
| AAGACCGA | 0.126 |
| GCAGTTCA | -0.00057 |
| CGTTCTGA | -0.0104 |
| CCGGGTTA | 0.0138 |
| CAGGTTTC | 0.143 |
| AGAACTCG | 0.0115 |
| AGTCACGA | -0.204 |
| CTCTCACA | 0.0894 |
| CCGGAGGC | -0.267 |
| CGTTACTA | 0.0748 |
| AAGCGCTC | -0.00157 |
| CTGTGAGA | -0.0752 |
| GTGTGCCA | -0.144 |
| ATTATCCG | 0.469 |
| AAGTCAAT | 0.216 |
| ATTCCTAC | 0.00845 |
